This note sets out measurements from paper PMC6919601, “Identification of Plasmodium dipeptidyl aminopeptidase allosteric inhibitors by high throughput screening” (PLoS ONE, 2019).

The whole screen tested about 110,000 compounds, of which about 230 (0.21%) showed an effect of 50% or more. This is one part of the list.
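Also: 30 min substrate incubation versus DMSO and 10 µM JCP410 controls.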

For this experiment, the target named is DPAP1 (Plasmodium falciparum, UniProt Q8IIJ9). Nature of the experiment: primary screen, percent inhibition; read by cleavage of a fluorogenic dipeptide substrate; higher = more effect of the substance. Further details: species or system P. falciparum D10 trophozoite lysates; single well.
Sequence of DPAP1 (Q8IIJ9 whole entry, looked up): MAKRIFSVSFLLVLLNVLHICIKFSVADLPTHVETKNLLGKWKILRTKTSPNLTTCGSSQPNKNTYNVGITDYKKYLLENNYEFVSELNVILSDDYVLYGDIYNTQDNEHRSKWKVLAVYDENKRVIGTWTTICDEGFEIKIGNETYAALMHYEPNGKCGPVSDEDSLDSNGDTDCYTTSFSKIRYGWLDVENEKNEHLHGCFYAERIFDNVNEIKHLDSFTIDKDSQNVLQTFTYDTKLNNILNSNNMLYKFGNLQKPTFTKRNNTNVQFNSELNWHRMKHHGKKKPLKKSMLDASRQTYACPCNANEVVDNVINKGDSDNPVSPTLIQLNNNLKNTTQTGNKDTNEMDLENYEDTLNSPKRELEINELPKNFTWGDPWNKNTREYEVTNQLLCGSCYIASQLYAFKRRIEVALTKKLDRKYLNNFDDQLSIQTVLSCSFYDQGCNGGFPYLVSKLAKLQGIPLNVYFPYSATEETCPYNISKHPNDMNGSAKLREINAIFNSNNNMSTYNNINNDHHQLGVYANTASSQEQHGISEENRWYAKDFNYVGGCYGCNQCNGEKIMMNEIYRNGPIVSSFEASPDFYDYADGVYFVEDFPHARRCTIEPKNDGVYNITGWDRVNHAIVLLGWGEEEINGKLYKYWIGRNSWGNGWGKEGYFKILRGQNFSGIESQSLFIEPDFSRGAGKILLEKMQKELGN
In the case of `O=C(O)c1ccccc1NC(=O)c1cc(Cl)c(Cl)cc1C(=O)O`, the “% Inhibition @ 10 uM” value is on record as -5.67%. For `N=C1/C(=C\c2cccn2CCCOc2ccccc2)C(=O)N=C2SC(N3CCCC3)=NN12`, the “% Inhibition @ 10 uM” value was -1.66%. Regarding `CN1C(=O)S/C(=C\c2ccccc2OCc2ccccc2F)C1=O`, the “% Inhibition @ 10 uM” value is -1.48%.

In the case of `CC(=O)NCCCc1nc2ccccc2n1Cc1ccccc1C`, the “% Inhibition @ 10 uM” value came out at 0.121%. For the compound `Cc1cc(C)c2c(n1)SCC(=O)N2CCCC(=O)NCCN(C)C`, the “% Inhibition @ 10 uM” value was -2.37%.

With `O=[N+]([O-])c1ccc(N2CCN(Cc3cccnc3)CC2)cc1`, the “% Inhibition @ 10 uM” value worked out at 3.25%.

For the compound `Cc1nc2sc3c(c2c(=O)o1)CCC3`, the “% Inhibition @ 10 uM” value was -5.35%. Regarding `Nc1ccc(C(=O)Nc2ccccc2C(=O)O)c(C(=O)O)c1`, the “% Inhibition @ 10 uM” value was determined as 1.9%. The figure for `CC(C)N(Cc1ccccc1)S(=O)(=O)c1ccc2[nH]c3c(c2c1)CCCC3` is 4.19%. Regarding `COc1ccc(-n2nnnc2C2CCN(S(=O)(=O)c3ccc(-n4cnnn4)c(OC)c3)CC2)cc1`, the “% Inhibition @ 10 uM” value is -3.49%. On to `CC(c1ccccc1)C1C(C#N)=C(N)Oc2c1c(=O)oc1ccccc21` (stereo not shown), for which the “% Inhibition @ 10 uM” value stood at 1.13%. Consider `COc1ccc(/C=C(\C#N)C(=O)NCc2ccco2)cc1`, for which the “% Inhibition @ 10 uM” value is reported as -5.92%. For `C=C(C)CC1NC2CC(C)(C)C1c1c(Br)cccc12` (stereo not shown), the “% Inhibition @ 10 uM” value is -2.45%. Regarding `CCCC1CCc2c(sc(NC(=O)C(F)(F)F)c2C(N)=O)C1` (stereo not shown), the “% Inhibition @ 10 uM” value was determined as 2.45%.

Regarding `CC1(C)CC(=O)C2=C(C1)NC(=O)CC2c1ccsc1` (stereo not shown), the “% Inhibition @ 10 uM” value is -0.396%.

As for `COc1ccc(C(O)(c2ccccc2)C(CN2CCOCC2)c2ccc(Cl)cc2)cc1` (stereo not shown), the “% Inhibition @ 10 uM” value is reported as 1.67%.

`CCn1nc(C)c(NC(=O)c2cnn3c(C(F)F)cc(-c4ccc(OC)cc4)nc23)c1C`: the “% Inhibition @ 10 uM” value is -1.72%. With `CCCCOc1ccc(C2C(=O)N(C3CCCCC3)CC(=O)N2CC2CCCO2)cc1` (stereo not shown), the “% Inhibition @ 10 uM” value is reported as 2.79%. With `COc1cc(C2c3c(-c4ccccc4O)n[nH]c3C(=O)N2CCO)ccc1OCCC(C)C` (stereo not shown), the “% Inhibition @ 10 uM” value amounted to 8.13%. Turning to `CC(Nc1oc(COc2ccccc2)nc1C#N)c1ccccc1` (stereo not shown), the “% Inhibition @ 10 uM” value was 1.35%.

With `C/C=C(\C)CN1CCN(C/C=C/c2ccccc2)CC1`, the “% Inhibition @ 10 uM” value turned out to be 0.0792%.

Consider `CC1=C(C(N)=O)C(c2ccc(O)cc2)n2nc(SCc3ccccc3Cl)nc2N1` (stereo not shown), for which the “% Inhibition @ 10 uM” value is recorded as 8.32%. As to `COc1ccc(C2C=C(c3ccc(Cl)cc3)Nc3ncnn32)c(OC)c1OC` (stereo not shown), the “% Inhibition @ 10 uM” value was -5.19%. Regarding `O=S(=O)(c1cccc2nsnc12)N1CCN(Cc2ccccc2)CC1`, the “% Inhibition @ 10 uM” value is on record as -3.72%. For the compound `CCOC(=O)c1sc2nc3c(cc2c1NC(=O)c1ccccc1)COC(C)(C)C3`, the “% Inhibition @ 10 uM” value is given as -2.65%. In the case of `CC[C@H](C)[C@H](NC(=O)N1CCN(C)CC1)C(=O)N[C@@H](CCc1ccccc1)C(=O)CO`, the “% Inhibition @ 10 uM” value is given as -4.82%. The figure for `CC1CCN(S(=O)(=O)c2ccc3c(ccn3CC(=O)NCc3ccc(OC(C)C)cc3)c2)CC1` is 0.00226%; for `CS(=O)(=O)N(CC(=O)Nc1ccc(S(=O)(=O)N2CCOCC2)cc1)c1cccc(F)c1` it is 2.65%; for `OCc1ccc(Oc2ccccc2)cc1` it is 2.44%. As for `O=C(Nc1ccc2c(c1)oc1ccccc12)c1ccco1`, the “% Inhibition @ 10 uM” value is -5.59%. With `CC(=O)Nc1ccc(S(=O)(=O)Nc2ccc(C(=O)c3ccccc3)cc2)cc1`, the “% Inhibition @ 10 uM” value is given as -4.05%. `C=CCSc1nc2c(c(=O)n1Cc1ccccc1)C(C1CCCCC1)Cc1ccccc1-2` (stereo not shown): the “% Inhibition @ 10 uM” value stood at 3.01%. As for `CCN1C2=NCCN2c2cc(C)c(C)cc21`, the “% Inhibition @ 10 uM” value is given as -3.09%. Regarding `CC(Nc1sc(S(C)(=O)=O)nc1S(=O)(=O)c1ccc(Cl)cc1)c1ccccc1` (stereo not shown), the “% Inhibition @ 10 uM” value was -4.04%. Regarding `Cc1cc(NC(=O)COc2ccc(Cl)c(C)c2)no1`, the “% Inhibition @ 10 uM” value is recorded as 3.53%. For `CC1CCCN(C(=O)c2ccc(C/N=c3/c(N4CCCCC4)c(O)c3=O)cc2)C1` (stereo not shown), the “% Inhibition @ 10 uM” value was 3.24%. Turning to `Nc1c(-c2nc(-c3ccccc3F)no2)nnn1-c1cccc(C(F)(F)F)c1`, the “% Inhibition @ 10 uM” value is 1.93%.

Consider `Cc1ccc(F)c(NC(=O)Cn2nc(C(F)F)cc2C)c1`, for which the “% Inhibition @ 10 uM” value came to 13.5%. `CC(=O)Nc1cccc(NC(=O)c2ccccc2C)c1`: the “% Inhibition @ 10 uM” value is -0.796%.

Take `Cc1ccc(-c2nc(CN3CCCCC3)cc(CN3CCCCC3)c2O)cc1`: the “% Inhibition @ 10 uM” value is recorded as -2.18%.

Turning to `CC1=C(C(=O)NCCN2CCCCC2C)C2(CCCCC2)OC1=O` (stereo not shown), the “% Inhibition @ 10 uM” value was -4.61%. On to `O=C(NCc1ccc2c(c1)OCO2)C1c2ccccc2C(=O)N2CCc3ccccc3C12` (stereo not shown), for which the “% Inhibition @ 10 uM” value is listed as -4.43%. With `COc1ccc(OC)c(/C=C(\C#N)c2nc3ccccc3n2C)c1`, the “% Inhibition @ 10 uM” value came to 0.611%. As for `COc1ccc(Br)cc1CN1CCc2cc(OC)c(OC)cc2C1`, the “% Inhibition @ 10 uM” value is -3.72%.

Take `COC(=O)C1=CN(Cc2ccc(F)cc2)C=C(C(=O)OC)C1c1ccccc1OCc1ccccc1`: the “% Inhibition @ 10 uM” value is on record as 0.219%. For the compound `COc1ccc(-c2nc3c4cnn(-c5ccc(C)cc5)c4ncn3n2)cc1OC`, the “% Inhibition @ 10 uM” value is on record as -9.83%.

Regarding `O=C(O)c1sc2cc([N+](=O)[O-])ccc2c1Cl`, the “% Inhibition @ 10 uM” value is reported as -4.21%. As to `COc1cc([C@H]2NCC[C@@]3(O)CCCC[C@H]23)cc(OC)c1OC`, the “% Inhibition @ 10 uM” value is recorded as -5.41%. For `Cn1c(-c2ccc3c(c2)OCO3)c(C(=O)O)c(=O)c2ccccc21` the value was 5.17%; for `CCO/C(O)=C1/C(CC)=NC2=C(C(=O)CCC2)C1c1ccccc1` (stereo not shown), 0.162%; for `CC1=NN2C(=O)NC(C(F)(F)F)(C(F)(F)F)N=C2S1`, 1.72%.

On to `Cn1c(=O)c2c(nc(NCC3CCCO3)n2Cc2cccc(Br)c2)n(C)c1=O` (stereo not shown), for which the “% Inhibition @ 10 uM” value is listed as 0.431%. For `CC1(C)Oc2ccc3ccc(=O)oc3c2CC1O` (stereo not shown) the value was 2.13%; for `CC1CCN(c2ncnc3onc(-c4ccc(F)cc4)c23)CC1`, 1.23%. Consider `CCOc1ccc(Nc2cc(C)nc(Nc3ccc(OCC)cc3)n2)cc1`, for which the “% Inhibition @ 10 uM” value was 2.45%. Consider `CCCCOC(=O)Nc1nnc(-c2ccc(C(C)(C)C)cc2)s1`, for which the “% Inhibition @ 10 uM” value came to 1.13%. On to `COc1ccc(C(=O)Nc2ccccc2Cl)cc1Br`, for which the “% Inhibition @ 10 uM” value is 7.67%. `COc1ccc(-n2nnc(-c3nsc(NC(=O)c4cccc(C)c4)n3)c2C)cc1Cl`: the “% Inhibition @ 10 uM” value was determined as 0.936%. As for `COC(=O)C1C(c2ccccc2)NC(c2ccccc2)C(C(=O)OC)S1(=O)=O` (stereo not shown), the “% Inhibition @ 10 uM” value was found to be 1.21%. As to `Cc1cccc(NC(=O)COc2ccc(Br)cc2)c1C`, the “% Inhibition @ 10 uM” value is 0.035%.

For the compound `O=[N+]([O-])c1ccc(C2Nc3ccccc3N2)o1`, the “% Inhibition @ 10 uM” value amounted to 2.5%.

Take `CC(=O)Nc1ccc(S(=O)(=O)Nc2sc3c(c2C(N)=O)CCCC3)cc1`: the “% Inhibition @ 10 uM” value worked out at 0.431%. For `COc1ccccc1Oc1nc2ccccn2c(=O)c1/C=C(\C#N)C(=O)NCCCOC(C)C` the value was 3.63%; for `CCN(CC)C(=O)C1CCCN(Cc2ccccc2F)C1` (stereo not shown), -0.0404%. As to `CCC(C)NC(=O)CS(=O)Cc1nc(-c2ccccc2)oc1C` (stereo not shown), the “% Inhibition @ 10 uM” value turned out to be 3.19%. As to `Cc1ccc2nc(NC(=O)Cn3cnc4c3c(=O)n(C)c(=O)n4C)sc2c1`, the “% Inhibition @ 10 uM” value is recorded as -7.23%. Take `Cc1c(C(=O)N(Cc2ccccc2)C(C)C)oc2ccc(S(=O)(=O)N3CCCC3)cc12`: the “% Inhibition @ 10 uM” value is given as 1.16%. The figure for `CCOc1ccc(C(=O)Nc2nc(C)cc(C)n2)cc1` is -1.37%; for `Clc1ccccc1N1CCN(Cc2ccc3ccccc3c2)CC1` it is -2.03%. For `Cc1cc(C)c2nc(NCc3ccccc3O)sc2c1`, the “% Inhibition @ 10 uM” value stood at 3.93%. With `Cc1cc(C(C)(C)C)cc(C)c1NS(C)(=O)=O`, the “% Inhibition @ 10 uM” value is recorded as -6.07%. Regarding `Cc1c(Cc2ccccc2)sc(NC(=O)Cc2ccccc2)c1C(N)=O`, the “% Inhibition @ 10 uM” value is -4.02%. Regarding `COc1cccc(/C=N\c2cccnc2)c1O`, the “% Inhibition @ 10 uM” value is on record as 0.26%. Regarding `O=C(Nc1ccc(-c2ccc([N+](=O)[O-])cc2)cc1)c1ccccc1F`, the “% Inhibition @ 10 uM” value was 0.98%. As to `COc1nc2cc(C)ccc2cc1C=O`, the “% Inhibition @ 10 uM” value amounted to 7.39%. In the case of `Cc1c(O)ccc(C(=O)COc2ccc(F)cc2)c1O`, the “% Inhibition @ 10 uM” value is reported as -0.615%. As to `CC1CCCN(C2CCN(CCc3ccccc3)CC2)C1` (stereo not shown), the “% Inhibition @ 10 uM” value came to 3.19%. For `Cc1ccccc1C=C1C(=O)N(C)C(=O)N(C)C1=O`, the “% Inhibition @ 10 uM” value came out at 0.343%.

As to `CN(CC(=O)NC1CCCC1)S(=O)(=O)c1cc(Br)cnc1N`, the “% Inhibition @ 10 uM” value is 3.1%. As to `COc1cc(OC)cc(-c2nnc(SCC(=O)N3CCCC(C)C3)o2)c1` (stereo not shown), the “% Inhibition @ 10 uM” value is reported as -0.999%. The figure for `O=C(c1cccc(S(=O)(=O)N2CCOCC2)c1)c1cccc(S(=O)(=O)N2CCOCC2)c1` is -1.74%; for `CCN1CCC(Nc2ccc3c(c2)CCC3)CC1` it is 1.43%; for `C=CCNC(=O)c1cnn2c(C(F)(F)F)cc(-c3cccs3)nc12` it is 8.46%. For `COc1ccc(-c2noc(CN(C(=O)CC(c3ccccc3)c3ccccc3)C(C)C)n2)cc1` the value was -3.68%; for `COc1ccccc1C(=O)Nc1ccc2nc(SCC(=O)NC3CC3)sc2c1`, 1.01%; for `O=C(O)CCC/N=C/C1=C(O)CCCC1=O`, 3.79%. For the compound `O=C(Cn1ncc2c(=O)oc3ccccc3c21)NCc1ccc2c(c1)OCO2`, the “% Inhibition @ 10 uM” value was -6.62%. As to `Cc1cccc(NC(=N)Nc2nc(C)c(Cc3ccccc3)c(O)n2)c1`, the “% Inhibition @ 10 uM” value is given as 6.07%.

`C=CCNC(=O)C1CCN(c2nc3ccc(CC)cc3s2)CC1`: the “% Inhibition @ 10 uM” value was determined as 2.79%. The figure for `CCOC(=O)C1=C(C)N(C)C(SC)=NC1c1ccccc1` (stereo not shown) is 4.42%; for `FC(F)(F)c1cc(-c2ccccc2)nc(NCc2cccnc2)n1` it is 2.59%. Consider `CC1CN(S(=O)(=O)c2ccc(F)cc2)C(C)CN1S(=O)(=O)c1ccc(F)cc1` (stereo not shown), for which the “% Inhibition @ 10 uM” value is recorded as -1.44%. For `CCC(C(=O)NCCN1CCCCCC1)n1nc(C)c2sc3ccccc3c2c1=O` (stereo not shown) the value was -4.43%; for `CN1CCC(N2CCCC(O)C2)CC1` (stereo not shown), 1.9%. `O=C(C1CCCN(S(=O)(=O)N2CCOCC2)C1)N1CCN(c2ccccn2)CC1` (stereo not shown): the “% Inhibition @ 10 uM” value turned out to be 5.43%. The figure for `COc1ccc(C)cc1NC(=O)CN(Cc1ccc(Cl)cc1)S(=O)(=O)c1ccccc1` is 3.53%; for `O=c1onc(-c2cccs2)n1Cc1ccccn1` it is -0.361%; for `CNC(=O)Cn1nc(C)c2c(C)n(-c3ccccc3)nc2c1=O` it is 1.11%.

For the compound `CC1=C(C(=O)Nc2cccnc2)C(c2ccc(Cl)cc2)n2nc(CCCO)nc2N1` (stereo not shown), the “% Inhibition @ 10 uM” value worked out at 0.64%. For `COc1cc(CC2C(=O)N(C)C(=O)N(C)C2=O)cc(Br)c1O` the value was 3.8%.
